Assay results as given in PubChem BioAssay AID624296 (National Center for Advancing Translational Sciences (NCATS), 2012).
Screen size: about 350,000 compounds; about 9,900 (2.8%) were called active. The shares of active, inactive and inconclusive entries below differ from those in the screen. Calls come from the whole dose curve; as a rule, active = well fitted activation curve with a large enough effect; inconclusive = small, poorly fitted or top-dose-only effect; inactive = no such curve, though single readings can be large or run the other way. No potency is given beside an inconclusive call; the fits are too rough.

Assay: A quantitative high throughput screen for small molecules that induce DNA re-replication in MCF 10a normal breast cells. For activity, positive = re-replication: % of control where 0% means no effect. Note: nearly all actives have a fitted effect of over 50% in size.
Details: MCF 10A DNA re-replication, Hoechst nuclear intensity, 48 h; activity, positive = re-replication: at 46.1 µM (top of the series)
Potency is the fitted concentration of half-maximal effect; tags give direction and shape of the fitted curve.

Structure (SMILES) | Potency | activity, positive = re-replication
COc1ccc(C(=O)N2CCN(CCNC(=O)C(=O)Nc3ccc(F)cc3)CC2)cc1 | inactive | 
O=C(O)c1c2c(nc3ccccc13)/C(=C/c1ccc(OC(F)F)cc1)CCC2 | inactive | 
CN1OC(c2ccccc2)=C(CO)C1c1ccccc1 (configuration not stated) | inconclusive [activator, full curve, poor fit] | 
CCC(=O)c1cn(CC(=O)Nc2ccccc2F)c2ccccc12 | inconclusive [activator, single point] | 
O=C(CN1CCCCC1)Nc1cccc(Cl)c1Cl | inconclusive [activator, single point] | 
Cc1cccc(-n2ncc3c(N4CC(C)CC(C)C4)ncnc32)c1 (configuration not stated) | inactive | 
COc1ccc(-n2sc3ccc(F)cc3c2=O)cc1 | inconclusive [activator, partial curve, poor fit] | 
Cc1ccc(N(Cc2ccc(C(=O)NCCSc3ccccn3)cc2)S(C)(=O)=O)cc1C | inactive | 
COc1ccc(-c2ccc3c(N)c(C(=O)NC(C)C)sc3n2)cc1OC | active: 18.4 µM | 
COCCN(C(=S)Nc1ccc(C(C)C)cc1)C(C)c1cccs1 (configuration not stated) | inconclusive [activator, partial curve, poor fit] | 
O=[N+]([O-])c1cc([N+](=O)[O-])c(Oc2cc(Cl)ccc2Cl)cc1NC1CCCCCCC1 | inactive | 
O=C(Cn1c(=O)[nH]c2ccccc2c1=O)N1CCN(Cc2ccc3c(c2)OCO3)CC1 | inactive | 
Cc1ccc(C(=O)NC(=S)NNC(=O)c2ccccc2O)cc1 | inconclusive [activator, single point] | 
CC1CCCC(n2c(=S)[nH]c3ccccc3c2=O)C1C (configuration not stated) | inconclusive [activator, partial curve, poor fit] | 
O=C(OC1CCOC1=O)C1CCN(S(=O)(=O)c2c(Cl)cccc2Cl)CC1 (configuration not stated) | inconclusive [activator, single point] | 
C=CCNC(=S)NNC(=O)COc1cccc(Cl)c1 | inactive | 
O=C(Nc1nnc(-c2cccs2)o1)c1cccc(Oc2ccccc2)c1 | inconclusive [activator, single point] | 
CCO[C@H]1OC(C(=O)N2CCN(Cc3ccc4c(c3)OCO4)CC2)=C[C@@H](C(C)(C)C)[C@@H]1CCCO |  | inconclusive: -24.2% [activator]
CC1CC(C)(C)NC(=S)N1CCCC(=O)Nc1ccc(Cl)cc1 (configuration not stated) | inactive | 
Cc1sc(NC(=S)NC(=O)c2ccccc2)c(C#N)c1C | inconclusive [activator, single point] | 
Cc1ccc2nc(SCC(=O)c3c[nH]c4ccccc34)[nH]c2c1 | inconclusive [activator, single point] | 
CCN(C(=O)COC(=O)C1CCN(S(=O)(=O)c2ccc(C)c(C)c2)CC1)C1CCCCC1 | inconclusive [activator, single point] | 
CSc1ccc(CN2CCC(CO)(Cc3ccc(Cl)cc3)CC2)cc1 | inconclusive [activator, partial curve] | 

Structure (SMILES) | Potency | activity, positive = re-replication
COc1ccc(-c2cc(C(=O)N3CCN(c4ncccn4)CC3)c3ccccc3n2)c(OC)c1 | inconclusive [activator, full curve, poor fit] | 
O=C(Nc1ccc2oc(-c3cccc4ccccc34)nc2c1)c1ncn[nH]1 | inconclusive [activator, partial curve] | 
O=C(CNC(=O)c1cc(Cl)cc([N+](=O)[O-])c1)NC1CC1 | inactive | 
COC(=O)C1C(=O)C(C(=O)/C=C/c2ccccc2)C(=O)CC1(C)C (configuration not stated) | inconclusive [activator, single point] | 
COc1cccc(C(=O)NCC(=O)NCc2cc(=O)n(C)c(=O)n2C)c1 | inactive | 
Cc1ccc(-c2cc(N)n3nc(-c4ccc(C)cc4)cc3n2)cc1 | inconclusive [activator, single point] | 
Cc1cc(Cl)ccc1NC(=S)NCc1ccc(Cl)cc1 | inconclusive [activator, single point] | 
O=C(Nc1nnc(-c2ccccc2Cl)s1)c1ccccc1F | inconclusive [activator, full curve, poor fit] | 
Cc1ccc(Nc2c(-c3ccc(N(C)C)cc3)nc3ncccn23)cc1 | inconclusive [activator, single point] | 
CCOC(=O)c1c(N2C(=O)CC(Sc3ccccc3C(=O)O)C2=O)sc(C)c1C (configuration not stated) | inconclusive [activator, single point] | 
C/C(=N\NC(=O)c1cc2ccccc2cc1O)c1cc2ccccc2o1 | inconclusive [activator, single point] | 
COc1ccc(N(C(=O)Cn2cnc3ccccc32)C(C(=O)NC2CCCCC2)c2ccccc2)cc1 (configuration not stated) | inconclusive [activator, single point] | 
CCc1ccc(NC(=O)C2CCN(S(=O)(=O)c3c(C)noc3/C=C/N(C)C)CC2)cc1 | inconclusive [activator, single point] | 
CCCSc1ccc([C@@H]2[C@H]3C(=O)N(CC)C(=O)[C@H]3[C@]3(C(=O)OC)CCCCN23)cc1OC | inconclusive [activator, single point] | 
COCC(=O)N1CCC(Oc2ccc(C(=O)NC3Cc4ccccc4C3)cc2)CC1 | inconclusive [activator, partial curve, poor fit] | 
O=C(CSc1ccccn1)Nc1ccc(Cl)c([N+](=O)[O-])c1 | inactive | 
Cc1ccc(-c2nnc(CSc3nc(C)nc4sc(C)c(C)c34)o2)cc1 | inconclusive [activator, partial curve, poor fit] | 
N#Cc1cc2c(=O)n3ccccc3nc2n(-c2ccc(Cl)cc2)c1=O | active: 0.517 µM | 
COc1ccccc1CN(C(=O)c1cnccn1)C(C(=O)NC1CCCCC1)c1cc(OC)c(OC)c(OC)c1 (configuration not stated) | inactive | 
O=C(c1cccc(OC2CCN(C3CCCC3)CC2)c1)N1CCCCCCC1 | inconclusive [activator, single point] | 
Cc1ccc(S(=O)(=O)Nc2ccc(S(=O)(=O)Nc3nccs3)cc2)cc1C | inactive | 
COc1ccc2[nH]c3c(c2c1)CCN1C(=O)C(CC(=O)NCc2ccc(OC)c(OC)c2)C[C@H](C(=O)N2CCOCC2)[C@@]31CCC1CCCC1 (some centres not stated) | inactive | 
COc1cc(C[C@H](C)[C@H](C)Cc2ccc3c(c2)OCO3)ccc1O | inconclusive [activator, single point] | 

Structure (SMILES) | Potency | activity, positive = re-replication
CNS(=O)(=O)/C=C/c1ccccc1 | inactive | 
Cc1ccc(-c2nc3[nH]c(=O)cc(NC(=O)C(C)C)n3n2)cc1 | inactive | 
COC(=O)Nc1sc2c(c1C(=O)NC1CC1)CCCCCC2 | inconclusive [activator, partial curve, poor fit] | 
Cc1ccc(S(=O)(=O)Nc2nc(C)c(NC(=O)Nc3ccc(Cl)cc3Cl)s2)cc1 | inconclusive [activator, single point] | 
CCCCCC(=O)c1ccc(O)cc1O | inconclusive [activator, single point] | 
Cc1cc2nc(NCCCO)n(CC(=O)c3cc(C(C)(C)C)c(O)c(C(C)(C)C)c3)c2cc1C | inactive | 
CCOC(=O)c1[nH]c(COC(=O)c2ccccc2NC(=O)c2ccco2)c(C(=O)OCC)c1C | inconclusive [activator, single point] | 
CCOC(=O)[C@H]1[C@H]2COc3ccccc3[C@@H]2N2C(=O)CN(Cc3ccccc3)C(=O)[C@@]12C | inconclusive [activator, full curve, poor fit] | 
OCC1CCCCN1CCNCc1cn[nH]c1-c1cccc2ccccc12 (configuration not stated) | inactive | 
O=C(Nc1ccc(F)cc1)N(Cc1cccs1)Cc1cc2cc3c(cc2[nH]c1=O)OCO3 | inconclusive [activator, single point] | 
CN(C(=O)COC(=O)c1ccccc1Nc1ccccc1)C1CCS(=O)(=O)C1 (configuration not stated) | inconclusive [activator, partial curve, poor fit] | 
CCOc1ccc(CN2CCN(Cc3[nH]c4ccccc4c3C)CC2CCO)cc1 (configuration not stated) | inconclusive [activator, single point] | 
O=C(c1csc2c1CCCC2)N1CCN(c2ccc(F)cc2)CC1 | inconclusive [activator, partial curve] | 
COc1cc(NC(=O)c2ccc(Cl)cc2)c(OC)cc1NC(=O)CN1CCOCC1 | inconclusive [activator, single point] | 
Cn1c(=O)c2[nH]c(COc3ccccc3)nc2n(C)c1=O |  | inconclusive: 179% [activator]
COc1ccc(-c2cc(C(F)(F)F)c(C#N)c(SCC(=O)Nc3ccc(C)cc3)n2)cc1 | inactive | 
Cc1ccc(NC(=O)C2CC(=O)Nc3nc4ccccc4n32)c(C)c1 (configuration not stated) | inactive | 
CCOC(=O)c1sc(Nc2nc(C)cc(C)n2)nc1C | inconclusive [activator, single point] | 
COc1ccc2c(c1)-c1nc(NC(=O)c3ccco3)sc1CC2 | inconclusive [activator, single point] | 
N=c1n(CCO)c2ccccc2n1Cc1ccccc1Cl | inconclusive [activator, partial curve] | 
N#Cc1c(-c2ccccc2)cc(-c2ccccc2)nc1SCc1nnc(-c2ccccc2)o1 | inconclusive [activator, partial curve, poor fit] | 
